Data reported in the supplement of paper PMC10300432.
Recombinant human monoclonal antibodies (heavy:light variable regions). ELISA EC50 on the named antigen, from 10 µg/ml down; IC50 against spike pseudovirus on HT1080-ACE2 cells, 48 h; lower = stronger. Calls: IC50 above 1,000 ng/ml = non-neutralizing; EC50 above 1,000 ng/ml = non-binder.

B1: C5238 (protein)
chain 1: QVQLVQSGPEVKKPGASVKISCKTSGYIFNTYGISWVRQGPGQGLEWMGWISTSNGDTKYSQKVQGRVTMTTDTSTRTAYMELRSLRSDDTAVYYCARDLGVLWFGETDDWGQGTLVTVSS
chain 2: DIQMTQSPSSLSASVGDRVTITCRASQGISNSLAWYQQKPGKAPKLLLYSASTLESGVPSRFSGSGSGTDFTLTISSLQPEDFATYYCQQYYTTRTFGQGTKVEIK
B2: C5216 (protein)
chain 1: QVQLVESGGGVVQPGRSLRLSCAASGFTFSDYGMHWVRQSPGKGLEWVAVIGDDGLYKWYADSVKGRFTISRDNSKNTLYLQMNGPRAEDTAIYFCARDWGSRVTYFDSWGQGTLVTVS
chain 2: DIQMTQSPSSLSASVGDRVTISCRASQSIGSYLSWYQQKPGKAPNLLIYDASNLQSGVPSRFSGSGSGTEFTLTVSSLQPEDFATYYCQQSYSTPPWTFGQGTKVEIK
B3: C5235 (protein)
chain 1: EVQLVESGGGLIQPGGSLRISCAASGLLVSRNYMNWVRQAPGKGLEWVSILYPGGSAFYASSVKGRFTISRDDSNNTLFLQMNSLRAEDSAVYYCARDLSTVGGFDIWGQGTVLTVSS
chain 2: EIVLTQSPGTLSLSPGESATLSCRASQSVSSSYLAWYQQKPGQAPRLLIYAASRRATGIPDRFSGSGSGTDFTLIISRLEPEDFAVYYCQLYDNLYPFGQGTKLEIK
B4: C5237 (protein)
chain 1: QVQLVESGGGVVQPGRSLRLSCAVSGFSLSRYGMHWVRQAPGKGLEWVAVTSYDGSNKYYADSVKGRFTISSDNSKNTLYLQMNSLRDEDTAVYYCAKKGGGPYCGGDCYAGYLDYWGQGTLVTVSS
chain 2: DIQLTQSPSSLSASVGDRVTITCRASQDISSALAWYQQRPGKAPKLLIYDASSLESGVPSRFSGSGSGTDFSLTISSLQPEDFASYYCQQFSSSPSITFGQGTRLEIK
B5: C5212 (protein)
chain 1: QVQLVESGGGVVQPGRSLRLSCAASGFTFSDYGMHWVRQAPGKGLEWVAVISYDGSNIRYAESVRGRFTISRDNSKNTVYLQMNSLRTEDTAVYYCAKAHFLDENWFDPWGQGALVTVSS
chain 2: EIVMTQSPATLSVSPGERATLSCRASQSISSNLAWYQQKPGQAPRLLIYGASTGATGIPARFSGSGSGTEFTLTISSLQSEDFAVYYCQQYNNWPLTFGPGTKVDIK
B6: C5218 (protein)
chain 1: EVQLLESGGGVVQPGGSLRLSCPASGFTFSSFAMSWVRQAPGKGLEWVAAINGRGITTYYAASVYGRFTISRDNSKNTLFLQMTSLRAEDTAVYYCAKDDSSGYHNYFDYWGQGTLVTVSS
chain 2: DIQMTQSPSSLAASVGDRVTISCRASQSISTYLNWYQQKPGKAPKLLIYAASNLQSGVPSRFSASGSGTDFTLTISSLQPEDFATYYCQQGYNTPPLTFGGGTKVEIK
B7: C5211 (protein)
chain 1: QVQLVESGGGVVKPGRSLRLSCVVSGFNFRHYGMHWVRQAQGKGLEWVAGISYDGDDKYYADSVKGRFTISRDNSKSRLYLQMNSLTAEDTAVYFCAKVQHSYAYPNNYFDYWGQGTLVTVSS
chain 2: DIQMTQSPSTLSASVGDRVTITCRASQSIGPWLAWYQQKPGKAPNLLIYKASSLESGVPSRFSGSGSGTEFTLTISSLQPDDFATYYCQQYNSYVSFGQGTKLEIK
B8: C5215 (protein)
chain 1: EVQLVESGGGLVQPGESLRLSCVGSGFIFSNHWMSWVRQAPGKGLEWVATIKQDGGEKYYVDSVKGRFTISRDNAKKSVYLQMNSLRAEDTAVYYCAGRWSHFDSWGQGTLVTVSS
chain 2: DIQMTQSPSSLSASIGDRITITCRASQGISNSLAWYQQKPGKAPNLLLYAASTLESGVPSRFSGSGSGTAYTLTISSLQPEDFATYYCQQYYSLPLGFGGGTKVEIK
B9: C5239 (protein)
chain 1: EVQLVQSGAEVKKPGESLKISCKASGYNFNSHYIGWVRQMPGKGLEWMGILYPGDSDTIYGPSFEGQVTISVDKSTTTAYLQWSRLKASDTATYYCARWTHTSGFYHFDYWGQGALVTVSS
chain 2: DIQMTQSPSSLSASVGDRVTLTCRASQSISMYLNWYQHKPGRAPKLLIYAASSLQSGVPSRFSGSGSGTDFTLTISNLQPEDFATYYCQQSYSTHLYTFGPGTKLEI
B10: C5044 (protein)
chain 1: EVQLVESGGGLVQPGGSLRLSCSASGFTFSNYALHWVRRAPGKGLEYVSGINSDGESTYHADSVKGRFTISRDNSKNTLYLQMSRLRAEDTAVYYCVREGGNYFVLGDFDVWGQGTMVTVSS
chain 2: SYELTQPPSVSVAPGKTARITCGGNSIGSKSVHWYQQKPGQAPLLVIYYDSDRPSGIPERFSGSNSGNTATLTISRVEAGDEADYYCQVWDTSCLFGGGTKLTVL
B11: C5207 (protein)
chain 1: QVQLVESGGGVVQPGRSLRLSCAAFGFTFTSSAMHWVRQAPGKGLEWVAVISHDGTNKYYGDSVRGRFTISRDNSKNTLSLQMDSLRAEDTAVYHCARWGRHPIYDSSGYPTHYYYGMDVWGPGTTVTVSS
chain 2: EIVLTQSPGTLSLSPGERATLSCRASQSVSGSYLAWYQQKVGQAPRLLIYGASSRATGIPDRFSGSGSGTDFTLTINRLEPEDFAVYYCQHHDTSPPLYTFGQGTKLEIK
B12: C5210 (protein)
chain 1: QVQLVESGGGVVQPGRSLRLSCAASGFTFSKYGMHWIRQAPGKGLEWVASIAFDGSDKYYADSVKGRFNISRDNSKDTLYLQMNSMRAEDTAVYYCAKQLSLYGSVNYYPDYWGQGTLVTVSS
chain 2: DIQMTQSPSSLSASIGDRVTITCQASQDINNYLNWYQQEPGRAPKLLIYDASNLEGGVPSRFSGGGSGTDFTFTISSLQPEDIATYYCQQYDNLPLTFGGGTKVEI
B13: C5236 (protein)
chain 1: EVQLVESGGGLVQPGGSLRLSCTGSGFLFSTYWMTWVRQAPGKGLEWVANIKQDGSEKYYVDSVKGRFIISRDNAKNSQYLQMNSLRAEDTGIYYCASALGVLWFGEPSQGTLVTVSS
chain 2: DIQMTQSPSSLSASVGDRVTITCRASQGISNSLAWYQQKPGKSPYLLIYSASTLESGVPSRFSGSGSGTDFSLTISSLQPEDFATYYCQQYYSIPITFGPGTKVDI
B14: C5045 (protein)
chain 1: QVQLVQSGAEVTKPGSSVKVSCKTSGGTLSNYAFNWVRQAPGLGLEWMGDIIPLSGTTHYAQKFQGRVTITADKSTRTVYMELSSLRSEDTAVYYCARDRGISMMVARELMVVWGQGTTVTVSS
chain 2: DIQMTQSPSTLSASVGDRVSITCRASQSINSWLAWYQQKPGKAPNLLIYDASSLESGVPSRFSGSGSGTEFTLTISSLQPDDFAIYYCQQYKDYPWTFGQGTKVEIK
B15: C5208 (protein)
chain 1: QVQLVQSGAEVKKPGASVKISCKASGYTFTNFYIHWVRQAPGQGLEWMAIINPSAGSTSSAQKFQGRVSMTSDTSTNTVYMELSSLRSEDTAVYYCVRDFVLIPAMNSFDIWGQGTMVTVSS
chain 2: EIVLTQSPATLSLSPGERATLSCRASQSVGSYLAWYQQKPGQAPRLLIYGASNRATGIPARFSGSGSGTDFTLTISSLEPEDFAVYYCQHRSNWPPEITFGQGTRLEIK

The binders below were run against SARS-CoV-2 Omicron BA.1 spike pseudovirus (assay: pseudovirus neutralization IC50; higher = weaker neutralization).
Method: (§1)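 Single-round luciferase reporter pseudovirus mixed with antibody dilutions and put on HT1080-ACE2 clone 14 cells for 48 h; signal relative to no-antibody wells, four-parameter fit.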
For B1, the “pseudovirus neutralization IC50” value was 0.0141 µg/mL.
In the case of B2, the “pseudovirus neutralization IC50” value is reported as 0.76 µg/mL.
In the case of B3, the “pseudovirus neutralization IC50” value is reported as 0.00263 µg/mL.
B4 was tested, and the “pseudovirus neutralization IC50” value was 0.907 µg/mL.
With B5 the “pseudovirus neutralization IC50” value was > 1 µg/mL.
In the case of B6, the “pseudovirus neutralization IC50” value is reported as > 1 µg/mL.
For B7, the “pseudovirus neutralization IC50” value was > 1 µg/mL.
In the case of B8, the “pseudovirus neutralization IC50” value is reported as > 1 µg/mL.
For B9, the “pseudovirus neutralization IC50” value was 0.78 µg/mL.
B10 was tested, and the “pseudovirus neutralization IC50” value was 0.757 µg/mL.
With B11 the “pseudovirus neutralization IC50” value was > 1 µg/mL.
For B12, the “pseudovirus neutralization IC50” value was > 1 µg/mL.
With B13 the “pseudovirus neutralization IC50” value was 0.678 µg/mL.
For B14, the “pseudovirus neutralization IC50” value was 0.082 µg/mL.
For B15, the “pseudovirus neutralization IC50” value was > 1 µg/mL.

These binders were tested against SARS-CoV-2 Omicron BA.4/5 spike pseudovirus in the same assay as above.
Method: as §1
With B1 the “pseudovirus neutralization IC50” value was > 1 µg/mL.
With B2 the “pseudovirus neutralization IC50” value was > 1 µg/mL.
In the case of B3, the “pseudovirus neutralization IC50” value is reported as 0.00184 µg/mL.
In the case of B4, the “pseudovirus neutralization IC50” value is reported as > 1 µg/mL.
In the case of B5, the “pseudovirus neutralization IC50” value is reported as > 1 µg/mL.
In the case of B6, the “pseudovirus neutralization IC50” value is reported as > 1 µg/mL.
For B7, the “pseudovirus neutralization IC50” value was > 1 µg/mL.
For B8, the “pseudovirus neutralization IC50” value was > 1 µg/mL.
B9 was tested, and the “pseudovirus neutralization IC50” value was > 1 µg/mL.
With B10 the “pseudovirus neutralization IC50” value was > 1 µg/mL.
B11 was tested, and the “pseudovirus neutralization IC50” value was 0.811 µg/mL.
With B12 the “pseudovirus neutralization IC50” value was > 1 µg/mL.
With B13 the “pseudovirus neutralization IC50” value was 0.358 µg/mL.
B14 was tested, and the “pseudovirus neutralization IC50” value was > 1 µg/mL.
For B15, the “pseudovirus neutralization IC50” value was > 1 µg/mL.

Each binder was assayed against SARS-CoV-2 Wuhan-Hu-1 spike pseudovirus in the same assay as above.
Method: as §1
For B1, the “pseudovirus neutralization IC50” value was 0.00313 µg/mL.
With B2 the “pseudovirus neutralization IC50” value was 0.0921 µg/mL.
For B3, the “pseudovirus neutralization IC50” value was 0.00119 µg/mL.
For B4, the “pseudovirus neutralization IC50” value was > 1 µg/mL.
With B5 the “pseudovirus neutralization IC50” value was 0.0182 µg/mL.
In the case of B6, the “pseudovirus neutralization IC50” value is reported as 0.00122 µg/mL.
B7 was tested, and the “pseudovirus neutralization IC50” value was > 1 µg/mL.
In the case of B8, the “pseudovirus neutralization IC50” value is reported as 0.00111 µg/mL.
In the case of B9, the “pseudovirus neutralization IC50” value is reported as > 1 µg/mL.
For B10, the “pseudovirus neutralization IC50” value was 0.547 µg/mL.
B11 was tested, and the “pseudovirus neutralization IC50” value was 0.00102 µg/mL.
B12 was tested, and the “pseudovirus neutralization IC50” value was 0.719 µg/mL.
With B13 the “pseudovirus neutralization IC50” value was 0.00236 µg/mL.
With B14 the “pseudovirus neutralization IC50” value was 0.000918 µg/mL.
With B15 the “pseudovirus neutralization IC50” value was > 1 µg/mL.

The binders below were run against SARS-CoV-2 Wuhan-Hu-1 spike receptor-binding domain (assay: ELISA binding EC50; higher = weaker binding; ELISA of recombinant human antibody on coated antigen, from 10 µg/ml in fourfold dilutions; four-parameter fit.).
With B1 the “ELISA binding EC50” value was 0.00484 µg/mL.
For B2, the “ELISA binding EC50” value was 0.00269 µg/mL.
For B3, the “ELISA binding EC50” value was 0.00192 µg/mL.
B4 was tested, and the “ELISA binding EC50” value was 0.00385 µg/mL.
For B5, the “ELISA binding EC50” value was 0.0029 µg/mL.
In the case of B6, the “ELISA binding EC50” value is reported as 0.0024 µg/mL.
With B7 the “ELISA binding EC50” value was 0.0945 µg/mL.
B8 was tested, and the “ELISA binding EC50” value was 0.00232 µg/mL.
With B9 the “ELISA binding EC50” value was 0.00573 µg/mL.
For B10, the “ELISA binding EC50” value was 0.00341 µg/mL.
With B11 the “ELISA binding EC50” value was 0.00215 µg/mL.
In the case of B12, the “ELISA binding EC50” value is reported as 0.00484 µg/mL.
In the case of B13, the “ELISA binding EC50” value is reported as 0.00281 µg/mL.
With B14 the “ELISA binding EC50” value was 0.00414 µg/mL.
B15 was tested, and the “ELISA binding EC50” value was 0.0265 µg/mL.
